From PubChem BioAssay AID686979 (National Center for Advancing Translational Sciences (NCATS), 2013)
Among all 420,000 compounds or so, about 50,000 (12%) were called active. The shares of active, inactive and inconclusive entries below differ from those in the screen. Calls come from the whole dose curve; as a rule, active = well fitted inhibition curve with a large enough effect; inconclusive = small, poorly fitted or top-dose-only effect; inactive = flat fitted curve, though single readings scatter. Potencies of inconclusive entries are left out as doubtful fits.

Assay: qHTS for Inhibitors of human tyrosyl-DNA phosphodiesterase 1 (TDP1): qHTS in cells in presence of CPT; note: nearly all actives have a fitted effect of over 55% in size
Settings: chicken DT40 Tdp1-/-;hTDP1 cells + 20 nM CPT, ATP luminescence, 48 h; activity change, negative = growth inhibition: at 46.2 µM (top of the series) unless noted
Procedure, shortened: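 Cell growth measured by CellTiter-Glo luminescence after a minimum 48 h, 37 C compound exposure with 20 nM CPT in Tdp1-knockout DT40 cells stably expressing hTDP1, seeded 400/well; qHTS titration format.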
% is set by controls: 0 for no effect and ±100 for the full control effect; potency is the fitted concentration of half-maximal effect; tags give direction and shape of the fitted curve.

SMILES | Potency | activity change, negative = growth inhibition
COc1ccc(OC)c(CNC(=O)c2ccc(C)c(NC(=O)c3nsc4ccccc34)c2)c1 | active: 18.4 µM | 
CCOCc1c(C(=O)OCC(=O)Nc2ccccc2C(N)=O)oc2ccccc12 | inconclusive [inhibitor, full curve, poor fit] | 
CCc1cc(Br)ccc1NC(=S)NCCc1ccccc1 | inconclusive [inhibitor, single point] | 
Cc1c(Cl)cccc1NC(=O)NN1CCN(C)CC1 | inconclusive [inhibitor, single point] | 
CC(Cl)C(=O)NNc1cccc(Cl)n1 (stereo not drawn) | inconclusive [inhibitor, single point] | 
CCc1nn2c(=O)cc(COC(=O)c3cccc(NC(=O)c4cccs4)c3)nc2s1 | inconclusive [inhibitor, single point] | 
Cc1cc(C)cc(NC(=S)/N=C(\N)Nc2nc(C)c3ccccc3n2)c1 | active: 20.6 µM | 
CC(=O)N1CCc2cc(NC(=O)C3(C)CCN3CCc3ccccc3)ccc21 (stereo not drawn) | active: 20.6 µM | 
Cc1nc2nncn2c(Nc2ccccc2)c1C | active: 20.6 µM | 
CCN(Cc1ccncc1)C(=O)CCc1nnc(CCC2CCCCC2)o1 | inconclusive [inhibitor, single point] | 
Cc1sc2nc(C(C)C)nc(SCC(=O)N3CCN(C(=O)c4ccco4)CC3)c2c1C | inconclusive [inhibitor, full curve] | 
CCc1cc(Cn2nc(-c3ccccc3)cc2C(=O)NCc2ccccc2OC)on1 | inconclusive [inhibitor, single point] | 
CCCCN1CC(COCc2ccccc2)Oc2ccccc2S1(=O)=O (stereo not drawn) | inconclusive [inhibitor, single point] | 
Cn1c(=O)c2c(nc(Oc3ccc4ccccc4c3)n2C)n(C)c1=O | inconclusive [inhibitor, partial curve] | 
Nc1cc(-c2cccc(Br)c2)nn1Cc1ccccc1 | inconclusive [inhibitor, single point] | 
CC1=C(C(=O)N(C)C)CC(CC(=O)NC2CCCCC2)C(=O)N1Cc1ccc(C(C)(C)C)cc1 (stereo not drawn) | inconclusive [inhibitor, single point] | 
CCC1CCc2sc(C(=O)N3CCN(c4ccccn4)CC3)cc2C1 (stereo not drawn) | inconclusive [inhibitor, single point] | 
Cc1ccc(-c2csc3nnc(SCc4csc(C)n4)n23)cc1 | inactive | 
COc1cc(C2NC(=O)c3c(sc4c3CCN(C)C4)N2)cc(Br)c1OC(=O)c1ccc(C)cc1 (stereo not drawn) | inconclusive [inhibitor, single point] | 
O=S(=O)(/N=S1\CC=CCN1S(=O)(=O)c1ccccc1)c1ccccc1 (stereo not drawn) | inconclusive [inhibitor, single point] | 
COCCNC(=O)Nc1cc(C(=O)NCc2ccc(C(C)C)cc2)ccc1N1CCCC1 | inconclusive [inhibitor, single point] | 
CCc1cccc(C)c1NC(=O)Cn1cnc2c1c(=O)n(C)c(=O)n2C | inconclusive [inhibitor, single point] | 
Cc1ccccc1-n1nc(CO)c(C(=O)NCc2cccnc2)n1 | inactive | 

SMILES | Potency | activity change, negative = growth inhibition
CCN(CC)CCNC(=S)NC(=O)c1cn(-c2ccccc2)nc1-c1ccc(OC)cc1 | inconclusive [inhibitor, single point] | 
CCc1ccc(CNC(=O)C(C)n2ccc3cc(S(=O)(=O)N4CCCCCC4)ccc32)cc1 (stereo not drawn) | inconclusive [inhibitor, single point] | 
Cc1ccc(CN=c2c([N+](=O)[O-])nn(-c3ccc4c(c3)OCCO4)n2O)cc1 | inconclusive [inhibitor, single point] | 
COc1ccc(N2CCN(C(=O)CCn3c(=O)[nH]c4cc(OC)c(OC)cc4c3=O)CC2)cc1 | inactive | 
Cc1ccc(N(CC2CO2)S(=O)(=O)c2ccc(C)cc2)cc1 (stereo not drawn) | inconclusive [inhibitor, single point] | 
CCc1nc2ccc(C(=O)NCCOc3ccc(OC)cc3)cn2c1N(C)CCCc1ccccc1 | inconclusive [inhibitor, single point] | 
CCOC(=O)C1=C(O)/C(=C/c2cc(OC)c(OC)c(OC)c2)SC1=Nc1ccc(OC)cc1 | inconclusive [inhibitor, single point] | 
COc1cccc(OCc2nnc(SCC(=O)OC3CCCCC3)n2C)c1 | inconclusive [inhibitor, partial curve, poor fit] | 
CCn1c(SCC#N)nc2c(c1=O)C1(CCCC1)Cc1ccccc1-2 | inconclusive [inhibitor, partial curve] | 
CCCC(=O)N(CCc1ccccc1)Cc1nc2ccccc2c(=O)[nH]1 |  | inconclusive: -32.4% [inhibitor]
COC(=O)c1c[nH]c(=O)c2ccccc12 | inconclusive [inhibitor, single point] | 
CCOC(=O)C1CCN(C(=O)c2ccc(OCC(=O)Nc3cccc(C(F)(F)F)c3)c(OC)c2)CC1 | active: 13 µM | 
CCc1ccc(NCCC(=O)c2ccc(Br)cc2)cc1 | inconclusive [inhibitor, single point] | 
CC12CCC(C(=O)N(NC(=O)c3ccccc3O)C1=O)C2(C)C (stereo not drawn) | active: 20.6 µM | 
COc1ccccc1N1CCN(c2ncnc3onc(-c4ccc(F)cc4)c23)CC1 | inconclusive [inhibitor, single point] | 
CC(C)(C)C(=O)Nc1cc2c3c(c1)CC(=O)N3CCC2 | inactive | 
CCCOc1c(OC)cccc1C1CC(=O)Nc2cc(OC)c(OC)c(OC)c21 (stereo not drawn) | inconclusive [inhibitor, single point] | 
Cc1cc(Nc2ccccc2)nc(-c2ccccc2O)n1 | active: 16.4 µM | 
Cc1ccc(NC(=O)C2CCN(S(=O)(=O)c3ccc4[nH]c5c(c4c3)CCCCC5)CC2)cc1 | active: 13 µM | 
COc1cccc(C(=O)NCCc2csc(-c3ccc(Cl)cc3)n2)c1 | active: 16.4 µM | 
O=C(/C=C/c1ccc(F)cc1)NC(=S)NNC(=O)[C@H]1C[C@@H]1c1ccccc1 | inconclusive [inhibitor, single point] | 
CCOC(=O)C1CCN(S(=O)(=O)c2ccc3[nH]c4c(c3c2)CCCC4)CC1 | inconclusive [inhibitor, single point] | 
Cc1cc(=O)oc2cc(O)c(N=Nc3ccccc3)cc12 | inconclusive [inhibitor, single point] | 

SMILES | Potency | activity change, negative = growth inhibition
Nc1ccccc1Nc1nc2ccccc2[nH]1 | inconclusive [inhibitor, partial curve] | 
CCOc1ccc(C(=O)NCC(=O)NNC(=O)CN(C)S(=O)(=O)c2ccc(Cl)cc2)cc1OCC | inactive | 
O=C(Nc1ccc(S(=O)(=O)Nc2ccccc2)cc1)C1COc2ccccc2O1 (stereo not drawn) | active: 16.4 µM | 
Cc1ccccc1Nc1nnc(SCC(=O)N(C)C2CCS(=O)(=O)C2)s1 (stereo not drawn) | inactive | 
Cc1ccc(C)c(NC(=O)CCC(=O)N/N=C/c2cc([N+](=O)[O-])ccc2O)c1 | inconclusive [inhibitor, single point] | 
O=S1(=O)CC(N2CCN(CCO)CC2)CN1Cc1cn(Cc2ccc(C(F)(F)F)cc2)nn1 (stereo not drawn) | inactive | 
O=C(Nc1ccc(Cl)cc1)C1Cc2c(-c3cccc(F)c3)ccnc2O1 (stereo not drawn) | inconclusive [inhibitor, single point] | 
COc1ccc(NC(=O)COc2ccccc2Cc2ccccc2)cn1 | inconclusive [inhibitor, partial curve] | 
N#Cc1ncc(Br)cn1 | inactive | 
O=C(c1ccc(Br)o1)N1CCN(c2ccc3nnc(-c4ccccc4)n3n2)CC1 | active: 16.4 µM | 
Cc1ccc(C)c(NC(=O)C2CCCN(c3nc4ccccc4s3)C2)c1 (stereo not drawn) | inconclusive [inhibitor, single point] | 
COc1ccc(C(=O)Cc2nnc(C)s2)cc1 | inactive | 
Cc1ccc(NC(=O)Cn2c(C)csc2=O)cc1 | inactive | 
CCOC(=O)COc1c(OC)cc(Cl)cc1C1Nc2ccccc2C(=O)N1c1cccc(C)c1 (stereo not drawn) | inconclusive [inhibitor, single point] | 
CCn1c(SCc2ccc(C)cc2)nnc1C1CCN(S(=O)(=O)c2ccc(OC)cc2)CC1 |  | inconclusive: -30.7% [inhibitor]
COc1ccccc1C1CCN(Cc2cccc(C(=O)N3CCC(O)CC3)c2)CC1 | inconclusive [inhibitor, single point] | 
C/C=C1\NC(=O)[C@H](C)NC(=O)[C@@H](NC(=O)[C@H](Cc2ccc(O)cc2)NC(=O)[C@@H](NC(=O)/C(C)=C/C)C(C)C)[C@@H](C)OC(=O)[C@H](CCCc2ccc(O)cc2)NC(=O)[C@@H](CCC(=O)OC)NC1=O | inactive | 
O=C(N/N=C/c1ccc2c(c1)OCO2)c1cc(-c2ccncc2)nc2ccccc12 | active: 3.66 µM | 
CCOc1cc(/C=C(/NC(C)=O)C(=O)O)cc(Cl)c1OCc1cccc(Br)c1 | inactive | 
CCOC(=O)CN1C=C(c2ccc3ccccc3n2)C(C[N+](=O)[O-])c2ccccc21 (stereo not drawn) | inconclusive [inhibitor, single point] | 
CCOC(=O)C1CCN(C(=O)c2cc(S(=O)(=O)N3CCCCCC3)ccc2OC)CC1 | inactive | 
Cc1ccc(S(=O)(=O)N2CCN(C(=O)c3cc(S(=O)(=O)N4CCOCC4)ccc3Cl)CC2)c(C)c1 | active: 18.4 µM | 
